In all, about 2,200 compounds went through this assay and fewer than 10 were called active. This is one part of the list. The source made no clear call on entries shown without one.
The compounds below were run against GTPase KRas (Homo sapiens) (UniProt P01116) (assay: Fragment capture on engineered cysteines, share of protein labelled (AID 2202238)). Settings: KRAS G12D cysteine mutants, disulfide tethering, MALDI-TOF labeling; stronger effect = higher value; H27C mutant labeling; fragment at 500 µM.
Chain of UniProt P01116 (P01116 whole entry, looked up, the tested form may be a part): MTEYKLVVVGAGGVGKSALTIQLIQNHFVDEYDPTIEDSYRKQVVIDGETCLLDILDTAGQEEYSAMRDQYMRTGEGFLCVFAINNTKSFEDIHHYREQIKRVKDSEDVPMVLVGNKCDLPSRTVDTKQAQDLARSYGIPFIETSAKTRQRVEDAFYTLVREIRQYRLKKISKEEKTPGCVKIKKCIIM
Parameters: protein at 5 µM with 500 µM competing thiol for 1.5 h

In order of falling percent labeling:
1. Cc1cc(N2CCC(N(C)C(=O)CCS)CC2)nc(C)n1  55.1%
2. CN(C)Cc1cnn2c1CN(C(=O)CCS)CC2  54.3%
3. O=C(NCCS)c1cnc2ccccc2n1  52.2%
4. O=C(CCS)NC1CCN(CCc2ccccc2)CC1  51.5%
5. O=C(Cc1c[nH]c2cnccc12)NCCS  51.3%
6. Cc1cc(C)c(N2CC(C(=O)NCCS)CC2=O)c(C)c1 (configuration not stated)  50.4%
7. Cn1nc(C(=O)NCCS)c(=O)c2ccccc21  48.6%
8. O=C(CCS)NC1CCN(c2nc(Cl)ncc2F)C1 (configuration not stated)  48.6%
9. Cc1nc2ncc(C(=O)NCCS)cc2[nH]1  47.9%
10. O=C(NCCS)c1cc(-n2ccnn2)ccc1F  47.6%
11. O=C(NCCS)c1cn2c(Br)cnc2s1  46.6%
12. O=C(CCS)Nc1cccnc1Oc1ccccc1  46.2%
13. Cc1noc(C)c1CN(Cc1c(C)noc1C)C(=O)CCS  45.9%
14. CCOC(=O)c1cnc(N2CCN(C(=O)CCS)CC2)s1  45.7%
15. O=C(CCS)NC1CC(c2ccccc2F)C1 (configuration not stated)  45.3%
16. NC(=O)COc1cccc(NC(=O)CCS)c1  44.9%
17. O=C(CCS)N1CCc2[nH]c3ccc(F)cc3c(=O)c2C1  44.9%
18. Cc1cc(NC(=O)CCS)cnc1NC(=O)c1cccc(O)c1  44.7%
19. O=C(CCS)N(CCn1ccnc1)Cc1ccsc1  44.4%
20. CC1(C)CN(C(=O)CCS)Cc2ccccc2O1  44.4%
21. N#Cc1cccnc1N1CCCN(C(=O)CCS)CC1  44.2%
22. O=C(CCS)N1CCC(Cc2cccc(F)c2)CC1  43%
23. O=C(CCS)NCc1cn2cc(Cl)ccc2n1  42.4%
24. O=C1CC(C(=O)NCCS)c2ccc(F)cc2N1 (configuration not stated)  42.3%
25. CC1(CC2CCCN2C(=O)CCS)NC(=O)NC1=O (configuration not stated)  41.9%
26. O=C(CCS)N1CCN(Cc2nc3ccsc3c(=O)[nH]2)CC1  41.9%
27. O=C(NCCS)c1cc(N2CCNC2=O)c(F)cc1F  41.9%
28. CCn1ncnc1-c1ccc(C(=O)NCCS)cc1  41.8%
29. Cc1ccc(-c2ccncc2)cc1NC(=O)CCS  41.4%
30. COc1cc2c(cc1OC)CN(CC(=O)NCCS)CC2  41.3%
31. Cn1c(=O)[nH]c(=O)c2[nH]c(CCC(=O)NCCS)nc21  40.7%
32. CC(NC(=O)CCS)c1noc(Cc2noc3ccccc23)n1 (configuration not stated)  40.6%
33. Cc1noc(C)c1CN(C(=O)CCS)C1CC1  40.6%
34. O=C(NCCS)C1CCN1C1CCCC1 (configuration not stated)  40.4%
35. CC1(C(=O)NCCS)CCCN(C(=O)c2ccccc2)C1 (configuration not stated)  40.4%
36. O=C(CCS)Nc1ccc(N2CCOCC2)cc1Cl  40.2%
37. O=C(NCCS)C1CCN(S(=O)(=O)c2ccc(F)cc2Cl)CC1  40.1%
38. O=C(NCCS)c1nc(Br)cs1  40.1%
39. O=C(CCS)NC1CC2(C1)NC(=O)NC2=O (configuration not stated)  40%
40. O=C(CCS)NC1CC2(CCC2)C12CCC2 (configuration not stated)  39.3%
41. Cc1c(CC(=O)NCCS)nnn1-c1ccccc1  39%
42. O=C1CCCc2cc(C(=O)NCCS)ccc2N1  38.9%
43. Cc1c(C(=O)NCCS)cccc1-c1ccccn1  38.8%
44. O=C(CCS)NCc1ccc2cnccc2c1  38.6%
45. O=C(Cc1ccc(N2CCCC2=O)cc1)NCCS  38.5%
46. O=C(CCS)NC1Cc2[nH]ncc2C(C(F)(F)F)C1 (configuration not stated)  38.4%
47. O=C(NCCS)c1cnn(-c2cccc(Br)c2)c1  37.9%
48. O=C(CCS)NC1(c2nc(C3CC3)cc(=O)[nH]2)CCCCC1  37.8%
49. CN1CCn2nc(NC(=O)CCS)cc2C1  37.7%
50. O=C(CCS)NCC(=O)N1CCc2sccc2C1  37.5%
51. Cn1nc(NC(=O)CCS)cc1CN1CCOCC1  37.4%
52. COc1cc2ccccc2c(NC(=O)CCS)n1  37.2%
53. O=C(CCS)Nc1ccc(-c2cn3ccsc3n2)cc1  37%
54. O=C(Nc1ccc(F)cc1)NC1CCN(C(=O)CCS)CC1  36.9%
55. Cc1cc(C)c(C(=O)NCCS)c(C)c1Br  36.8%
56. O=C(Nc1cn[nH]c1)C1CCN(C(=O)CCS)C1 (configuration not stated)  36.7%
57. O=C(CCS)NCC1=CS(=O)(=O)c2ccccc21  36.7%
58. CN(C)Cc1csc(CNC(=O)CCS)n1  36.6%
59. O=C(CCS)N1CC2ON=C(C(F)F)C2C1 (configuration not stated)  36.6%
60. O=C(CCS)NCc1c(F)cccc1OC(F)F  36.3%
61. CN1C2(CCC2)COCC1(CO)CNC(=O)CCS (configuration not stated)  36.3%
62. Cc1csc(Nc2ccc(C(=O)NCCS)cc2)n1  35.6%
63. CCc1cc(OC)c(CC2(NC(=O)CCS)CC2)cc1OC  35.4%
64. O=C(CCc1cccc(Br)c1F)NCCS  35.4%
65. O=C(NCCS)c1ncsc1-c1ccccc1  35.3%
66. CS(=O)(=O)C[C@@H]1C[C@H](F)CN1C(=O)CCS  35.3%
67. Cc1nc(CN2CCN(C(=O)CCS)CC2)oc1C  35.2%
68. CC(=O)NC(Cc1c[nH]c2cc(F)ccc12)C(=O)NCCS (configuration not stated)  35.1%
69. O=C(CCS)Nc1ccccc1OCC(F)(F)F  34.8%
70. COc1ccc(Br)c(C(=O)NCCCNC(=O)CCS)c1  34.6%
71. N#Cc1cc2c([nH]c1=O)CCN(C(=O)CCS)C2  34.2%
72. O=C(CCc1ccc2cccnc2c1)NCCS  34.1%
73. O=C(NCCS)c1nc[nH]c1C(F)(F)F  34.1%
74. Cn1ccn2ncc(CNC(=O)CCS)c2c1=O  34%
75. O=C(NCCS)C1CCc2nc(C(F)(F)F)cn2C1 (configuration not stated)  33.9%
76. O=C(CCS)N1CCC(N2C(=O)CCCC2=O)CC1  33.8%
77. CCn1cc(C(=O)NCCS)c(C(F)(F)F)n1  33.8%
78. Cc1[nH]c(=O)c(C#N)c(C)c1CCC(=O)NCCS  33.8%
79. Cn1cc(C2(C(=O)NCCS)CCCO2)cn1 (configuration not stated)  33.6%
80. O=C(CCS)NC1(c2nccs2)CCCC1  33.6%
81. Cn1cc(-c2cc(C(F)(F)F)nn2CCCNC(=O)CCS)cn1  33.3%
82. O=C(NC1CCN(C(=O)CCS)CC1)C1CC1  33.1%
83. CCCc1noc(-c2cccc(CNC(=O)CCS)c2)n1  32.8%
84. O=C(CC(c1ccc(Cl)c(Cl)c1)N1CCOCC1)NCCS (configuration not stated)  32.5%
85. O=C(NCCS)c1csc(C2CCCO2)n1 (configuration not stated)  32.2%
86. CN(CCCC(=O)NCCS)C(=O)c1ccncc1  31.9%
87. O=C(Cn1c(-c2cccc(Cl)c2Cl)nc2ccccc21)NCCS  31.9%
88. O=C(NCCS)c1c(F)ccc(C(F)(F)F)c1F  31.6%
89. Cc1csc(N(CCc2ccccc2)C(=O)CCS)n1  31.4%
90. Cc1oc2ccccc2c1CN(C)C(=O)CCS  31.3%
91. O=C(NCCS)c1nccnc1C(=O)NCc1ccc(F)cc1  31.2%
92. COc1ccc2c(c1)CCC(C(=O)NCCS)C2 (configuration not stated)  31%
93. Cc1nn(CCO)cc1CNC(=O)CCS  31%
94. O=C(CC(c1ccccc1)c1ncc[nH]1)NCCS (configuration not stated)  31%
95. Cn1cc(-c2ncccc2C(=O)NCCS)cn1  30.9%
96. O=C(CCS)NC1CCc2sc(Cl)cc21 (configuration not stated)  30.8%
97. CC(C)(C)OC(=O)C1CC(O)(C2CCN(C(=O)CCS)CC2)C1 (configuration not stated)  30.7%
98. O=C(NCCS)c1cc2c(C(F)(F)F)cc(=O)[nH]c2o1  30.5%
99. Cc1nc2c(C(N)=O)ncn2c(C)c1CCC(=O)NCCS  30.5%
100. O=C(CCS)NCc1ncoc1-c1ccccc1  30.4%
101. O=C(NCCS)C1CCCN1C(=O)c1cncn1-c1ccccc1 (configuration not stated)  30.2%
102. Cc1onc(-c2ccccc2)c1NC(=O)CCS  30.1%
103. O=C(NCCS)[C@@H]1C[C@]12CCOc1ccc(Cl)cc12  29.5%
104. Cc1c(C(=O)NCCS)[nH]c(=O)c2ccccc12  29.4%
105. CC(O)(C(=O)NCCS)C1CCC1 (configuration not stated)  29.3%
106. Cc1nc(-c2cccs2)sc1C(=O)NCCS  29.2%
107. O=C(CCNC(=O)NC1CCCCC1)NCCS  29.1%
108. O=C(NCCS)c1cc(-c2ccc3c(c2)OCO3)n[nH]1  28.9%
109. Cc1cc(=O)cc(C)n1CCCC(=O)NCCS  28.5%
110. O=C(NCCS)C1(c2cccc(Cl)c2)CCCC1  28%
111. Cc1nc(CCC(=O)NCCS)oc1-c1ccccc1  27.9%
112. O=C(NCCS)C1(C(F)(F)F)CCCCO1 (configuration not stated)  27.1%
113. O=C(NCCS)C1CC1c1c(F)cccc1F (configuration not stated)  26.7%
114. O=C(NCCS)c1[nH]nc2c1COc1ccccc1-2  26.6%
115. Cc1nn(C)c(C)c1[C@@H]1OCC[C@H]1C(=O)NCCS  26.2%
116. CC(NC(=O)NCC(=O)NCCS)c1ccco1 (configuration not stated)  26.1%
117. CC(C)N(C)c1ccc(C(=O)NCCS)cc1  26%
118. O=C(NCCS)c1cc(Oc2cccc(Br)c2)ccn1  25.7%
119. O=C(Cn1cnc(-c2ccccc2)n1)NCCS  25.4%
120. O=C(CCNC(=O)Cc1ccccc1)NCCS  25.4%
121. COc1ccc(CCC(=O)NCCS)cc1Cl  25.3%
122. Cc1nc(=O)[nH]c(C)c1CCC(=O)NCCS  25.3%
123. Cn1cc(C(=O)NCCS)c(-c2cccnc2)n1  24.9%
124. CC(C)(C(=O)NCCS)c1csc(-c2c(F)cccc2F)n1  24.6%
125. O=C(NCCS)C1CCN(C(=O)c2ccc3ccccc3c2)CC1  24.3%
126. O=C(CCS)NCCc1nccc(C(F)F)n1  24.1%
127. O=C(NCCS)c1cc(Nc2ccccc2)ncn1  24%
128. O=C(Cn1c(-c2ccccc2)cc2ccccc21)NCCS  24%
129. O=C(NCCS)c1nsc2cc(Br)ccc12  22.9%
130. O=C(Cc1nc2ccccn2c1Br)NCCS  22.7%
131. O=C(NCCS)c1coc(-c2ccc(F)cc2)n1  22.4%
132. O=C(NCCS)c1cn(-c2ccc(Br)cc2)cn1  22.1%
133. O=C(NCCS)c1c[nH]cc1-c1cc(Cl)c2c(c1)OCCO2  21.8%
134. COc1cc(N2CCN(C(=O)CCS)CC2)ccc1O  20.4%
135. O=C(CN1C(=O)c2ccccc2C(F)(F)C1=O)NCCS  20.4%
136. O=C(CCS)Nc1cc(-c2ccccc2)nn1Cc1ccccc1  19.9%
137. O=C(NCCS)C1CC=CCC1C(=O)NC1CC1 (configuration not stated)  18.8%
138. O=C(CCS)N1CCCCC1c1noc(=O)[nH]1 (configuration not stated)  18.8%
139. O=C(NCCS)C1CCCN1c1ncc(C(F)(F)F)cc1Cl (configuration not stated)  16.6%
140. O=C(CCS)N1CCn2cccc2C12CCC2  11.6%
141. O=C(NCCS)C1CCN(S(=O)(=O)c2ccc(OC(F)(F)F)cc2Cl)CC1  8.9%
142. CC(CC(=O)NCCS)N1CCc2ccccc21 (configuration not stated)  8.3%

Reference: PubChem BioAssay AID2202238 (Ras Initiative Chemistry Research Team, Frederick National …, 2025)
